Assay results: the supplement of paper PMC11417369
± gives the standard deviation of the averaged measurements. Some of the results follow.

The sequences below were run on PfAP2-EXP AP2 domain (GST-tagged) (assay: gcPBM binding intensity (ln(normalized median fluorescence intensity)); higher = stronger DNA binding).
Procedure, shortened: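 GST-tagged P. falciparum DNA-binding domains produced in E. coli were incubated for 1 h on an Agilent 4 × 180k array of primer-extended double-stranded 36-bp intergenic genomic probes with negative controls. Binding intensity is the highest Masliner-normalised natural-log median intensity across replicate spots of either probe orientation, with bound protein detected by Alexa488 anti-GST antibody at 488 nm.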

In order of falling “gcPBM binding intensity (ln)” value:
1. TATATATATATACATACATGCATATATATATATATA [TGCATGCA_site513]  10.2 ± 0.54
2. AAATATACATACATATGTACATATATATATATATAT [XGTACX_site8202]  10.1 ± 0.45
3. TACATGCAAAAAATTCCACACACACCCCCACATATA [CACACA_site8329]  9.82 ± 0.42
4. ATAACTTTTGCGCGTACACACATTTATCCTCTTTAT [CACACA_site209]  9.8 ± 0.54
5. ACAATAAAGAACAGTATGCACTTTTATGCATGCGTA  9.32 ± 0.17
6. ATAATATTTTATATAGTGCATTTGCTCATTATATAT [GTGCAC_site9528]  9.02 ± 0.36
7. ACTAATACATAAAAAAGTACAAATATGAGTATTAAC [XGTACX_site7281]  9.01 ± 0.29
8. TTCTTTTAATTACGAGTGCATACCATATGACATTAT [GTGCAC_site9819]  8.98 ± 0.3
9. TTTTTTTTTTTTTTCTGTACTTAAAAAGGGGGAGAA [XGTACX_site3799]  8.96 ± 0.31
10. AATATATCTTATTTAACACACACAAAGAAAATAGAA [CACACA_site9242]  8.95 ± 0.34
11. AATACAATAAAAAAAAGTACACATGTATAAAAAATT [XGTACX_site8270]  8.94 ± 0.38
12. CAAACATGTTCAAATTGTACAATAGAAAATATATAT [XGTACX_site1557]  8.91 ± 0.54
13. TACTTCATTCATTTTACACACATATAAACCCTTTTA [CACACA_site3229]  8.9 ± 0.45
14. ATAGTATACGGACACACACACACACCGATATATATA [CACACA_site5032]  8.88 ± 0.45
15. AGGTTAATCGAAATTGCATGTGACGAAAAATCAAAA [TGCATGCA_site666]  8.87 ± 0.29
16. TGTTATCAGAAAGCACGTACATATAATTATATATTC [XGTACX_site4188]  8.85 ± 0.38
17. TATATAATATATATATGTACACATTTGCAAACAATG [XGTACX_site6941]  8.85 ± 0.21
18. ACATATATATACTATCGATTAATAAATTTGTTTTTT [CACACA_negctrl_site881]  8.82 ± 0.42
19. CTTTTTCTTTTCCGGCGTACAGACTTAGTAGTAGAT [XGTACX_site2268]  8.81 ± 0.4
20. AATATTCAATATAAAGTGCATTATTGTGGACCTAAT  8.77 ± 0.099
21. AATATCACATTCCACGGTACACACTAAAAGAAAAAT [XGTACX_site7653]  8.77 ± 0.51
22. GGGTATACCAATATAACACACATATATATATAATAT [CACACA_site450]  8.74 ± 0.39
23. TTAATCAAATTACTATGTACATAAAACATATAAGAA [XGTACX_site381]  8.72 ± 0.33
24. TTCAATTAAAAAATATGTACGCATAAATTGATATAT [XGTACX_site4289]  8.71 ± 0.33
25. CACACGTATAAATATACACACTAAAATACACGCACA [CACACA_site7876]  8.71 ± 0.28
26. TTCTTATTTGTACTAGTGCAATAGAAAATAAATAAA [GTGCAC_site9731]  8.71 ± 0.15
27. TATATAGCTAAAAACACACAAATATGTACACATAAA [CACACA_site7665]  8.71 ± 0.39
28. CCCTTAAAATATAAATGTACAAAATTATTTGTATGT [XGTACX_site6164]  8.7 ± 0.49
29. TAAAATATAGGAAATACATGCATATTAAATATTCCT [TGCATGCA_site1057]  8.66 ± 0.28
30. TAGAAAATCAGTTAAACACACACATAAAAAAAAAAA [CACACA_site8933]  8.65 ± 0.49
31. ATAGTTAAAAAAAAAAAAAAAAAAAAAAGAGAGAGA [CACACA_negctrl_site1307]  8.64 ± 0.64
32. ATAAATTGATTCAACACACACATATGTAGGAAGTTA [CACACA_site3253]  8.64 ± 0.61
33. AGAAAAGAGAGAAAAACATGCACATGATATTATAAA [TGCATGCA_site120]  8.62 ± 0.53
34. AAAAAAAAAAAAAGTACACACATACAGATAAATATA [CACACA_site5067]  8.61 ± 0.55
35. ATAAGCATACATATTACACACATATAACATCTATAT [CACACA_site7219]  8.61 ± 0.47
36. TTTTTTAAATTGGTAGTGCAATATGATTGAACAAAA [GTGCAC_site9715]  8.6 ± 0.014
37. CAAATACATGGACACACACACATATACAGATATATA [CACACA_site5854]  8.59 ± 0.45
38. TATCTTATATTTACACGTACGTAGAATTTATAAGTT [XGTACX_site3460]  8.57 ± 0.35
39. ATGATAAACATGGATACACACATATATATTACATAT [CACACA_site1576]  8.55 ± 0.33
40. GAATATGTAAAGAAAGGTACACATGAAAATATGTGT [XGTACX_site446]  8.55 ± 0.42
41. ACGTATGTATATTACACACATACATATTATTCACTA [CACACA_site204]  8.54 ± 0.47
42. TATTTATAACATTGTACACACAAAGAAATAATATTA [CACACA_site7422]  8.53 ± 0.4
43. TTTTATGGAAAGTGTTGTACATATTTTTGTATATGT [XGTACX_site7356]  8.49 ± 0.19
44. AAAAGAGAAACATTTACACACAAATATAGATATATG [CACACA_site1027]  8.49 ± 0.4
45. GTGAATATTAAAAAATGTACACAATTATATGTATAT [XGTACX_site4834]  8.49 ± 0.28
46. ATAAACATCTAGTGCTGTACACAATTTGATTTTTTT [XGTACX_site3110]  8.47 ± 0.27
47. AAATTATTAAAAAAGTGTACATATTTTTATAATACC [XGTACX_site5610]  8.39 ± 0.23
48. CATATATAACATATAACACACATACTTAGTATTACA [CACACA_site5674]  8.37 ± 0.46
49. TTGAAGTTTGATTGTAGTACGAATTGGTAGTTTTTT [XGTACX_site6854]  8.37 ± 0.39
50. ATGAATTAATCTAATCGTACAATAAGCATTATTATA [XGTACX_site2571]  8.32 ± 0.28
51. TGAGTATATATAAATACACACCAAATGTTAATATAT [CACACA_site5022]  8.31 ± 0.4
52. TTTTATTAATATTATTTATCTTCTCAAAAGATATAT [XGTACX_negctrl_site202]  8.3 ± 0.4
53. TGTACCTACAAAATATGATATATTTTTATAAATTGT [XGTACX_negctrl_site498]  8.3 ± 0.26
54. GATTATATATACAAAAGTACATTATAAAAATTTCAT [XGTACX_site4223]  8.29 ± 0.11
55. TTGTATAATTTAACAAGTACAAAATAAATTTGTATA [XGTACX_site5505]  8.19 ± 0.3
56. ATAAATACGATTAATTAGGTTTGTATAAATTAAATT [GTGCAC_negctrl_site635]  8.18 ± 0.33
57. TATTTTTTTTCAAAAAAGTTTATTTAGAACTAAATA [XGTACX_negctrl_site487]  7.88 ± 0.43
